About 230 (0.21%) of roughly 110,000 compounds showed an effect of 50% or more. Some of the results follow.
Target: DPAP1 (Plasmodium falciparum, UniProt Q8IIJ9)
Assay: primary screen, percent inhibition; read by cleavage of a fluorogenic dipeptide substrate; higher = more effect of the substance
Design: species or system P. falciparum D10 trophozoite lysates; single well
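Also: 30 min substrate incubation versus DMSO and 10 µM JCP410 controls.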

Sequence of DPAP1 (Q8IIJ9 whole entry, looked up): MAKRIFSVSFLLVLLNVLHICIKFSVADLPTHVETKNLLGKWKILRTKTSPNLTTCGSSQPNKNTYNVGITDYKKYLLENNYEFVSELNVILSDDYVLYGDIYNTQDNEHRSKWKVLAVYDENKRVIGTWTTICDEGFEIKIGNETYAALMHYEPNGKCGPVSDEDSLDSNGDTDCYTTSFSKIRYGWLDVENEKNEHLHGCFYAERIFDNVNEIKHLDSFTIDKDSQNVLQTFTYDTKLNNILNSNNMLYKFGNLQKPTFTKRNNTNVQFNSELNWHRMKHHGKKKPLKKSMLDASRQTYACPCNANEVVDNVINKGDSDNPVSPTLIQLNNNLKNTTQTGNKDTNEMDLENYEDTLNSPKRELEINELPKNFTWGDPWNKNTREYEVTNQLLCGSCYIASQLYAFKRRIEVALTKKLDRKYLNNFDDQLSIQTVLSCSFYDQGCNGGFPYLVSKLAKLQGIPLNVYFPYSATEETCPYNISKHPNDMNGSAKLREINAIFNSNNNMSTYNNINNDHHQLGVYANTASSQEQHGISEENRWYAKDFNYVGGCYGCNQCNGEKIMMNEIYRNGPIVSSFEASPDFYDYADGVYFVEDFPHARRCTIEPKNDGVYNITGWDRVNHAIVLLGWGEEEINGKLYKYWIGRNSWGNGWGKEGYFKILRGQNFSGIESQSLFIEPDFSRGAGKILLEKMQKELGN

In order of falling “% Inhibition @ 10 uM” value:
1. CCCCNc1nc(OC(C(F)(F)F)C(F)(F)F)nc(N2CCNCC2)n1  12%
2. COc1ccc(C2=NOC(C(=O)N3CCCCC3C)C2)cc1 (stereo not shown)  9.05%
3. CNCCc1c(-c2ccccc2)n(-c2ccccc2)c2ccccc12  7.96%
4. CCSC1=C(C#N)C(c2ccc(O)cc2)C(C(=O)Nc2ccccc2)=C(C)N1 (stereo not shown)  7.11%
5. O=C(NCC1CCCO1)c1ccccc1Br (stereo not shown)  6.6%
6. Clc1ccc(OCCCCCN2CCCC2)cc1  6.14%
7. COc1ccc(C(=O)NCc2nnc(SCC(=O)NCc3ccco3)o2)cc1  6.1%
8. COc1ccc2nc(NC(=O)C3CCCN3S(=O)(=O)c3cccc4nsnc34)sc2c1 (stereo not shown)  4.54%
9. CCOc1nc(N2CCCCC2)nc(-n2cc(-c3ccccc3)nn2)n1  4.32%
10. C=CCNC1=C(Cl)C(=O)N(c2ccccc2Cl)C1=O  4%
11. CCC(C)NCc1c(C(=O)O)n(Cc2cccc(C)c2)c2ccccc12 (stereo not shown)  3.54%
12. O=C(O)c1ccc(N2C(=O)CC(N3CCC(Cc4ccccc4)CC3)C2=O)cc1 (stereo not shown)  3.24%
13. Cc1cc(OC(C)c2nc(-c3nonc3N)no2)ccc1Cl (stereo not shown)  3.17%
14. Cc1cc(C)nc(SCc2nnc(SCC(N)=O)n2CCc2ccccc2)n1  2.5%
15. CCC1(CC)C(=O)N(C)C(=O)N=C1N(C)C  1.9%
16. CCOc1ccc2nc(N3CCCC(C(=O)N4CCc5ccccc5C4)C3)sc2c1 (stereo not shown)  1.8%
17. CN1C/C(=C\c2ccc3c(c2)OCO3)C(=O)/C(=C/c2ccc3c(c2)OCO3)C1  1.42%
18. COc1ccc(-c2noc(CNC3CCCCC3)n2)cc1OC  1.38%
19. CC1(c2ccc3ccccc3c2)C(=O)c2ccccc2C1=O  1.26%
20. COc1ccc(C(=O)Nc2cc3c(ccc4ccccc43)oc2=O)cc1OC  0.997%
21. Cc1ccc(NC(=O)C2CC2)c(NC(=O)C2CC2)c1  0.777%
22. Cc1ccc(S(=O)(=O)CC(Cn2nc(Cl)nc2Cl)n2nc(Cl)nc2Cl)cc1 (stereo not shown)  0.147%
23. CCOC(=O)C1=C(C)OC(N)=C(C#N)C12C(=O)Nc1ccc(Br)cc12 (stereo not shown)  -0.233%
24. CCN(CC)CCCNC(=O)C1CCCN(c2nn3c(=O)cc(C)nc3s2)C1 (stereo not shown)  -0.281%
25. CCc1nn(C(C)C(=O)NCCCN(C)Cc2ccccc2)c(=O)c2cc3occc3n12 (stereo not shown)  -0.281%
26. N#CC1=C(N)OC2=C(C(=O)CC(c3cccs3)C2)C1c1ccccc1 (stereo not shown)  -1.08%
27. Cc1cc(C(=O)NCc2ccc3c(c2)OCO3)c2c(C)nn(-c3ccccc3)c2n1  -1.3%
28. COc1ccc(N2C(C(C)=O)=NN(c3ccccc3)C2c2cccs2)cc1 (stereo not shown)  -1.32%
29. O=C(C1=C(O)C(=O)N(CCCn2ccnc2)C1c1ccccn1)c1ccccc1 (stereo not shown)  -1.36%
30. COCCn1c(SCC(=O)Nc2nc3ccc(C)cc3s2)nc2c(c1=O)SCC2  -1.62%
31. O=C(NCc1ccco1)C1CC(=O)N(CCc2ccccc2)C1 (stereo not shown)  -1.79%
32. O=C(c1ccc(CN2CCOCC2)cc1)N1CCCC1  -1.99%
33. CCOC(=O)c1c(N)sc2c1CCN(C)C2  -2.48%
34. O=C(O)[C@@H]1CSC(c2cccc([N+](=O)[O-])c2)N1 (stereo partly shown)  -2.51%
35. CC1(C)CC(=O)C2=C(C1)OC(N)=C(C#N)C2c1ccc(F)cc1F (stereo not shown)  -2.51%
36. Cc1ccccc1OCC(=O)Nc1nn2c(-c3ccco3)nnc2s1  -2.79%
37. CC1CCc2cc(F)ccc2N1C(=O)c1cnn(C)c1 (stereo not shown)  -3.04%
38. CC(C)C[C@H](NC(=O)c1c(F)ccc(F)c1F)C(=O)NCC#N  -3.04%
39. Cc1c(Cl)cccc1-c1ccc(CNCCNC(=O)c2nonc2N)o1  -3.49%
40. CC(C)Sc1nn2c(=O)cc(CSc3nnc(N)s3)nc2s1  -3.95%
41. Cc1ccc(C)n1-c1ccc(Oc2ccc(-n3c(C)ccc3C)cc2)cc1  -4.06%
42. COc1cc(OC)c(OC)cc1CN1CCSCC1  -4.61%
43. O=C(Nc1ccccc1)Nc1ccc(Br)c(Cl)c1  -4.71%
44. O=C(COc1ccccc1)NCCc1nc2ccccc2[nH]1  -5.38%
45. O=C(O)C1C2CCC(C2)C1C(=O)Nc1cc(F)ccc1F (stereo not shown)  -5.98%
46. Nc1ccc(O)c2c1C(=O)c1c(O)ccc(N)c1C2=O  -7.25%
47. COc1ccc(C2=NN(C(=O)CCC(=O)O)C(c3ccc(C)cc3)C2)cc1 (stereo not shown)  -8.16%
48. CN(c1ccccc1C(=O)NC(C)(C)C)S(C)(=O)=O  -8.41%
49. Cc1nn(CC(=O)NC(C)c2ccc3c(c2)OCCO3)c(=O)c2cccn12 (stereo not shown)  -11.1%
